Measurements: publication PMC10265822, “Analysis of RAS and drug induced homo- and heterodimerization of RAF and KSR1 proteins in living cells using split Nanoluc luciferase” (Cell Communication and Signaling : CCS, 2023)

Target: T1, BRAF^V600E-LgBiT (UniProt P15056, V600E)
T1 construct: source: HEK293T, transiently transfected (PEI); in living cells; not shown: HA, N-terminal, kept; LgBiT (158 aa, joined by a 15 aa G/S linker), C-terminal, kept
Assay: split reporter (BiFC, NanoBiT); living HEK293T cells co-transfected with a LgBiT and a SmBiT fusion plus empty pMIG or pMIG/KRAS^G12V; 96-well plate, Furimazine (Vivazine or Endurazine for long-term runs); with DMSO, 10 µM Sorafenib or other RAF/MEK inhibitors for 4 h, or 100 ng/ml EGF
Settings: partners not purified

fold dimer formation (luminescence) over the wild-type BRAF-LgBiT/BRAF-SmBiT pair: ~4 fold
B1: BRAF^V600E-SmBiT (natural protein)
chain: not shown
notes: source: HEK293T, transiently transfected (PEI); in living cells; not shown: HA, N-terminal, kept; SmBiT (11 aa, joined by a 15 aa G/S linker), C-terminal, kept
